According to PMC9911399, “Two distinct binding modes provide the RNA-binding protein RbFox with extraordinary sequence specificity”:
Positions count from the first letter of the chain named. The list shows a part of the results.

T1: RBFOX1 RRM RbFoxmut (Fox-RRM*) (Homo sapiens, UniProt Q9NWB1 109-208, R118D;E147R;N151S;E152T)
T1 sequence: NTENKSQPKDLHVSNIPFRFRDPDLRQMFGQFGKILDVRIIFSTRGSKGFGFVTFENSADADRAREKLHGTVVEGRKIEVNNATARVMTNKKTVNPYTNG

B1: CAGAAAC (DNA:RNA)
RNA: GGGAGACCGGAAUUCAGAUUGUCCCAGAAACUUAAAUCCCGUCGUAGCCACCA
DNA 1: CAATCTGAATTCCGGTCTCCC
DNA 2: TGGTGGCTACGACGGGATT
B2: GACUAGG (DNA:RNA)
RNA: B1 RNA with C25G, G27C, A28U, A30G, C31G
DNA 1: CAATCTGAATTCCGGTCTCCC
DNA 2: TGGTGGCTACGACGGGATT
B3: UCUGGUC (DNA:RNA)
RNA: B1 RNA with C25U, A26C, G27U, A28G, A29G, A30U
DNA 1: CAATCTGAATTCCGGTCTCCC
DNA 2: TGGTGGCTACGACGGGATT
B4: CUCCGCG (DNA:RNA)
RNA: B1 RNA with A26U, G27C, A28C, A29G, A30C, C31G
DNA 1: CAATCTGAATTCCGGTCTCCC
DNA 2: TGGTGGCTACGACGGGATT
B5: AACUGCU (DNA:RNA)
RNA: B1 RNA with C25A, G27C, A28U, A29G, A30C, C31U
DNA 1: CAATCTGAATTCCGGTCTCCC
DNA 2: TGGTGGCTACGACGGGATT
B6: AGACCCA (DNA:RNA)
RNA: GGGAGACCGGAAUUCAGAUUGUCCAGACCCAUUAAAUCCCGUCGUAGCCACCA
DNA 1: CAATCTGAATTCCGGTCTCCC
DNA 2: TGGTGGCTACGACGGGATT
B7: CACUCAC (DNA:RNA)
RNA: B1 RNA with G27C, A28U, A29C
DNA 1: CAATCTGAATTCCGGTCTCCC
DNA 2: TGGTGGCTACGACGGGATT
B8: UCUGUGU (DNA:RNA)
RNA: GGGAGACCGGAAUUCAGAUUGUCCUCUGUGUUUAAAUCCCGUCGUAGCCACCA
DNA 1: CAATCTGAATTCCGGTCTCCC
DNA 2: TGGTGGCTACGACGGGATT
B9: CAAGCGC (DNA:RNA)
RNA: B1 RNA with G27A, A28G, A29C, A30G
DNA 1: CAATCTGAATTCCGGTCTCCC
DNA 2: TGGTGGCTACGACGGGATT
B10: AUUUAGG (DNA:RNA)
RNA: B8 RNA with U25A, C26U, G28U, U29A, U31G
DNA 1: CAATCTGAATTCCGGTCTCCC
DNA 2: TGGTGGCTACGACGGGATT
B11: CGGUAUG (DNA:RNA)
RNA: B1 RNA with A26G, A28U, A30U, C31G
DNA 1: CAATCTGAATTCCGGTCTCCC
DNA 2: TGGTGGCTACGACGGGATT
B12: CCGAAGC (DNA:RNA)
RNA: B1 RNA with A26C, A30G
DNA 1: CAATCTGAATTCCGGTCTCCC
DNA 2: TGGTGGCTACGACGGGATT
B13: ACGAGCG (DNA:RNA)
RNA: B6 RNA with G26C, A27G, C28A, C29G, A31G
DNA 1: CAATCTGAATTCCGGTCTCCC
DNA 2: TGGTGGCTACGACGGGATT
B14: UAGUCAG (DNA:RNA)
RNA: B1 RNA with C25U, A28U, A29C, C31G
DNA 1: CAATCTGAATTCCGGTCTCCC
DNA 2: TGGTGGCTACGACGGGATT
B15: GAAUACA (DNA:RNA)
RNA: B6 RNA with A25G, G26A, C28U, C29A
DNA 1: CAATCTGAATTCCGGTCTCCC
DNA 2: TGGTGGCTACGACGGGATT
B16: CAAAUUG (DNA:RNA)
RNA: B1 RNA with G27A, A29U, A30U, C31G
DNA 1: CAATCTGAATTCCGGTCTCCC
DNA 2: TGGTGGCTACGACGGGATT
B17: UAAGCCG (DNA:RNA)
RNA: B6 RNA with A25U, G26A, C28G, A31G
DNA 1: CAATCTGAATTCCGGTCTCCC
DNA 2: TGGTGGCTACGACGGGATT
B18: CACUCCG (DNA:RNA)
RNA: B6 RNA with A25C, G26A, A27C, C28U, A31G
DNA 1: CAATCTGAATTCCGGTCTCCC
DNA 2: TGGTGGCTACGACGGGATT
B19: AAAAGGA (DNA:RNA)
RNA: B6 RNA with G26A, C28A, C29G, C30G
DNA 1: CAATCTGAATTCCGGTCTCCC
DNA 2: TGGTGGCTACGACGGGATT
B20: AGAUGAU (DNA:RNA)
RNA: B6 RNA with C28U, C29G, C30A, A31U
DNA 1: CAATCTGAATTCCGGTCTCCC
DNA 2: TGGTGGCTACGACGGGATT
B21: UUGUUGA (DNA:RNA)
RNA: B8 RNA with C26U, U27G, G28U, U31A
DNA 1: CAATCTGAATTCCGGTCTCCC
DNA 2: TGGTGGCTACGACGGGATT
B22: CUUCGCU (DNA:RNA)
RNA: B6 RNA with A25C, G26U, A27U, C29G, A31U
DNA 1: CAATCTGAATTCCGGTCTCCC
DNA 2: TGGTGGCTACGACGGGATT
B23: CGAGUGU (DNA:RNA)
RNA: B8 RNA with U25C, C26G, U27A
DNA 1: CAATCTGAATTCCGGTCTCCC
DNA 2: TGGTGGCTACGACGGGATT
B24: ACCCGGA (DNA:RNA)
RNA: B6 RNA with G26C, A27C, C29G, C30G
DNA 1: CAATCTGAATTCCGGTCTCCC
DNA 2: TGGTGGCTACGACGGGATT
B25: UGAUAGG (DNA:RNA)
RNA: B6 RNA with A25U, C28U, C29A, C30G, A31G
DNA 1: CAATCTGAATTCCGGTCTCCC
DNA 2: TGGTGGCTACGACGGGATT
B26: AGGUACC (DNA:RNA)
RNA: B6 RNA with A27G, C28U, C29A, A31C
DNA 1: CAATCTGAATTCCGGTCTCCC
DNA 2: TGGTGGCTACGACGGGATT
B27: AGUUUCC (DNA:RNA)
RNA: B6 RNA with A27U, C28U, C29U, A31C
DNA 1: CAATCTGAATTCCGGTCTCCC
DNA 2: TGGTGGCTACGACGGGATT
B28: CCCGCUC (DNA:RNA)
RNA: B1 RNA with A26C, G27C, A28G, A29C, A30U
DNA 1: CAATCTGAATTCCGGTCTCCC
DNA 2: TGGTGGCTACGACGGGATT
B29: GUGACGG (DNA:RNA)
RNA: B1 RNA with C25G, A26U, A29C, A30G, C31G
DNA 1: CAATCTGAATTCCGGTCTCCC
DNA 2: TGGTGGCTACGACGGGATT
B30: GACAAUC (DNA:RNA)
RNA: B1 RNA with C25G, G27C, A30U
DNA 1: CAATCTGAATTCCGGTCTCCC
DNA 2: TGGTGGCTACGACGGGATT
B31: GACGCAU (DNA:RNA)
RNA: B1 RNA with C25G, G27C, A28G, A29C, C31U
DNA 1: CAATCTGAATTCCGGTCTCCC
DNA 2: TGGTGGCTACGACGGGATT

Each binder was assayed against T1, RBFOX1 RRM RbFoxmut (Fox-RRM*) (assay: EMSA; HiTS-Eq, 1 nM pool, 10 min; buffer printed only for the single-RNA assays: 10 mM Tris pH 7.5, 150 mM NaCl, 3.4 mM EDTA, 0.001% NP-40, 30 C). Conditions: tags: His6 N-terminal (pET28a); label: 5' 32P.
In short: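 Purified RbFox RRM, wild type or mutant, was incubated for 10 min in 50 µL with 1 nM of a 5′-radiolabelled RNA pool carrying 7 randomized nucleotides, whose flanks were annealed to DNA oligonucleotides, over a series of increasing protein concentrations. Unbound RNA was resolved on 8% native PAGE, cut out, reverse-transcribed, barcoded by PCR and sequenced on an Illumina HiSeq 2500. Relative association constants were derived from changes in read counts for each RNA species versus the control reaction and normalised to the cognate motif.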

In order of falling binding signal:
1. B11  0.885 KA relative to UGCAUGU
2. B23  0.203 KA relative to UGCAUGU
3. B13  0.16 KA relative to UGCAUGU
4. B3  0.153 KA relative to UGCAUGU
5. B8  0.14 KA relative to UGCAUGU
6. B31  0.122 KA relative to UGCAUGU
7. B17  0.12 KA relative to UGCAUGU
8. B4  0.117 KA relative to UGCAUGU
9. B15  0.117 KA relative to UGCAUGU
10. B16  0.117 KA relative to UGCAUGU
11. B22  0.108 KA relative to UGCAUGU
12. B1  0.101 KA relative to UGCAUGU
13. B21  0.0998 KA relative to UGCAUGU
14. B12  0.0985 KA relative to UGCAUGU
15. B14  0.0969 KA relative to UGCAUGU
16. B2  0.0968 KA relative to UGCAUGU
17. B26  0.0954 KA relative to UGCAUGU
18. B10  0.0851 KA relative to UGCAUGU
19. B9  0.0844 KA relative to UGCAUGU
20. B24  0.0844 KA relative to UGCAUGU
21. B28  0.0841 KA relative to UGCAUGU
22. B29  0.0828 KA relative to UGCAUGU
23. B27  0.0802 KA relative to UGCAUGU
24. B7  0.0799 KA relative to UGCAUGU
25. B20  0.0767 KA relative to UGCAUGU
26. B5  0.0766 KA relative to UGCAUGU
27. B18  0.0747 KA relative to UGCAUGU
28. B25  0.0672 KA relative to UGCAUGU
29. B6  0.0527 KA relative to UGCAUGU
30. B19  0.0508 KA relative to UGCAUGU
31. B30  0.0331 KA relative to UGCAUGU
